Article PMC4336329 (PLoS ONE, 2015)
In all, about 310,000 compounds went through this assay and about 2,200 (0.71%) showed an effect of 50% or more. The effect is printed as a negative number. The list shows a part of the results.

What follows are molecules tested against human ether-à-go-go-related gene (hERG) potassium channel (human, UniProt Q12809) (assay: primary screen, population patch clamp on CHO cells stably expressing hERG).
human ether-à-go-go-related gene (hERG) potassium channel, sequence (Q12809 whole entry, looked up): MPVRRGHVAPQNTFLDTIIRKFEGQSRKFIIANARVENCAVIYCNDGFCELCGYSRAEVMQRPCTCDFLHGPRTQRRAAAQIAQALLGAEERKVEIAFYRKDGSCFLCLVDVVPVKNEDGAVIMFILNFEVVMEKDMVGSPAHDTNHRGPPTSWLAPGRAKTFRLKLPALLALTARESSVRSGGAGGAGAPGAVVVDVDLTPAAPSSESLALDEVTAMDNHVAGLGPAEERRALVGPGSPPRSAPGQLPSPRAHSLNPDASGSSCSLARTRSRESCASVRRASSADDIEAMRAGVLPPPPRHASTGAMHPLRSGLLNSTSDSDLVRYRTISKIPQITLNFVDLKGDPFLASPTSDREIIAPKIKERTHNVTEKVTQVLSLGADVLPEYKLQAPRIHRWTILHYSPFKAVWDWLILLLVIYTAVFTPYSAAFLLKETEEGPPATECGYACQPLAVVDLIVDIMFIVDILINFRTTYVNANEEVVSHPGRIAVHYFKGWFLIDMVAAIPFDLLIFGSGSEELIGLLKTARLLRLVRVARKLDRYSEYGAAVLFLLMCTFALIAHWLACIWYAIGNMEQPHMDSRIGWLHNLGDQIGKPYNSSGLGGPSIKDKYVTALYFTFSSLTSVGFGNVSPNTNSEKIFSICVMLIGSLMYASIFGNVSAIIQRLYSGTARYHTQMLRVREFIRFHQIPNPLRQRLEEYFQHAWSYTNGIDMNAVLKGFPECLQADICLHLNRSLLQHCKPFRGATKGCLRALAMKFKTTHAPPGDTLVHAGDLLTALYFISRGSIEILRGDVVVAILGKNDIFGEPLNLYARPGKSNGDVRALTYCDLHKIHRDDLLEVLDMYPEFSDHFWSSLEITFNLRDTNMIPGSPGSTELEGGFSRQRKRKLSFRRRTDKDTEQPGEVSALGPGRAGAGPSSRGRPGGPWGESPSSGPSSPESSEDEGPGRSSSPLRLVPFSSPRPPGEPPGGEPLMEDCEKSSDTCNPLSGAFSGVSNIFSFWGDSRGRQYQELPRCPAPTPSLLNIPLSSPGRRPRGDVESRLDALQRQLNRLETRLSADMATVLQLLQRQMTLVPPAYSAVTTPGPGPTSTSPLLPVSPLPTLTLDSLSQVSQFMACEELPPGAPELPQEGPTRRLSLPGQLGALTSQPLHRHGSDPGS

Compound | hERG current change (%, negative = inhibition) at 1uM [%]
COC(=O)c1ccc2c(=O)n3c(nc2c1)SCC(c1ccccc1)=N3 | 7.63
NNc1nc(-c2ccccc2)c2ccccc2n1 | 8.58
C=CCn1nc2ccccc2c1OC | 13.2
O=S(=O)(NCCc1ccccc1)c1ccc(S(=O)(=O)N2CCCCC2)cc1 | 14.4
O=C(O)c1c[nH]c(=O)c2ccccc12 | 15.4
COc1ccccc1NC(=O)c1cc(S(=O)(=O)N2CCC3(CC2)OCCO3)ccc1F | -5.88
CCOC(=O)c1cc2sccc2n1CC(=O)Nc1ccc2c(c1)OCCO2 | 18
CCCSc1cc(N2CCN(C)CC2)nc(-c2ccc(OC)cc2)n1.Cl | 6.13
OC1OC[C@@H](O)[C@H](O)[C@H]1O (some centres unmarked) | 20.9
O=S1(=O)N=C(Oc2ccccc2)c2ccccc21 | 5.47
COc1ccc2nc(SCC(=O)NC3CC3)c(C#N)cc2c1 | 13.2
O=C(CN1CCN(S(=O)(=O)c2ccc(Br)cc2)CC1)Nc1ccccc1C(=O)c1ccccc1 | 6.46
CCOc1ccc(S(=O)(=O)NCCC(=O)NC(C)CCc2ccccc2)cc1 (centres unmarked) | 12.2
O=C1Nc2ccccc2C1=Nc1cccc([N+](=O)[O-])c1 | 13.6
Nc1cc(=O)[nH]c(SCC(=O)Nc2ccc(S(=O)(=O)N3CCOCC3)cc2)n1 | -5.06
O=C(CSc1nnc(NC(=O)c2ccco2)s1)Nc1ccccc1F | 11
CC1(C)C2CCC1(C)C(NCC(O)COc1ccc(C#N)cc1)C2.O=C(O)C(=O)O (centres unmarked) | -16.1
Cc1cccc(N2CC(C(=O)Nc3nnc(SCC(=O)N4CCOCC4)s3)CC2=O)c1 (centres unmarked) | 10.1
C=CCOc1cccc(C(=O)Nc2ncn[nH]2)c1 | 12.9
CCC(C)C(NC(=O)C1CCC(C)CC1)C(=O)NCCCN1CCCCC1CC (centres unmarked) | 5.32
Cc1cc(C)n(-c2nc3ccccc3nc2N2CCN(S(=O)(=O)c3ccc4ccccc4c3)CC2)n1 | -1.48
COc1cccc(CNC(=O)CN2C(=O)CSc3ccc(S(=O)(=O)N4CCCC4)cc32)c1 | 4.06
CCOC(=O)C1(Cc2cccc(F)c2)CCN(C(=O)c2cscn2)CC1 | 8.76

Compound | hERG current change (%, negative = inhibition) at 1uM [%]
Cc1nn(-c2ccccc2)c(N2CCCC2)c1/C=C1\N=C(c2ccc(OC(C)C)cc2)OC1=O | 9.93
Cn1c(=O)n(C)c2cc(/C=N/NC(=O)c3cc4cc(Br)ccc4o3)ccc21 | -0.404
CCNc1nc(NC(C)C)nc(SCCOC(=O)c2ccccc2)n1 | 1.57
COc1ccc2c(c1OC)C(=O)OC2C1c2c(cc3c(c2OC)OCO3)CCN1C.Cl.O (centres unmarked) | 1.9
CCOC(=O)c1cc(NC(=O)N(CC)C2CCCCC2)c(C)nc1C | -0.96
Cn1c(Cn2cnc3ccccc32)nnc1SCC(=O)CC(=O)Nc1ccccc1 | 7.33
O=C1c2ccccc2C(O)N1Cc1ccccc1 (centres unmarked) | 8.4
COc1cccc(OCCOCC(O)CN2CCN(Cc3ccc(Cl)cc3)CC2)c1.Cl (centres unmarked) | -37.9
COCCNc1nc(=S)[nH]c2cc(OC)c(OC)cc12 | 0.436
COc1ccc(/C=N/Nc2nc(C)cc(-c3ccccc3)n2)c(OC)c1 | 9.88
CCN(CC(=O)Nc1c(F)cccc1F)C(=O)c1ccc(OCc2c(C)noc2C)cc1 | 4.95
C/C(CCc1ccccc1)=N\NC(=O)CC(=O)NCCc1ccccc1 | 18.5
O=C(NCc1ccccn1)c1ccccc1OCc1ccc(Cl)cc1Cl | 2.83
CCC(C)c1ccc(NC(=S)NCCn2cc(Cl)cn2)cc1 (centres unmarked) | 4.45
C/C(=N\N1CCN(c2ccccc2)CC1)c1cccs1 | 6.76
CC(=O)Oc1ccc(C(=O)[C@H]2[C@H]3C(=O)N(c4cccc5ccccc45)C(=O)[C@H]3[C@@H]3C=CC=NN32)cc1 | 15.6
O=C(Nc1c(C(=O)N2CCC(N3CCCCC3)CC2)oc2ccccc12)c1ccc(F)cc1 | -47.7
Cc1ccc(NCc2nnc(SCC(N)=O)n2CC2CCCO2)c(C)c1 (centres unmarked) | 17.7
CC1(C)CC(NC(=O)c2cc(COc3cccc(C(F)(F)F)c3)on2)CCO1 (centres unmarked) | 8.46
COc1ccc(/C=N/OCC(=O)NCC(C)C)c(OC)c1 | 4.4
Cc1nc2ccccn2c1-c1csc(NCc2ccco2)n1 | -45.5
COc1ccc(C(=O)Nc2ccccc2C(=O)NCC2CCCO2)cc1 (centres unmarked) | 6.31
Cc1nc2ccccc2nc(C)c1=NOCc1cccc(Cl)c1 | 6.58

Compound | hERG current change (%, negative = inhibition) at 1uM [%]
CCOc1ccc(C(=S)NC2CCCCC2)cc1OCC | 11.5
CCOC(=O)C1=NN(c2cccc(Cl)c2)C2=NC(C)=C(C(=O)OC)C(c3cccs3)N12 (centres unmarked) | 6.72
COc1ccc(C)c2sc(NC(=O)C3=COCCO3)nc12 | 11.8
O=C(Nc1ccc2c(c1)OCCO2)c1c(F)cccc1F | 8.77
COc1ccccc1Nc1nc(C2(C)CCC(=O)O2)cs1 (centres unmarked) | -0.499
O=C(Cc1nc2ccccc2[nH]1)c1ccc([N+](=O)[O-])cc1 | 7.9
O=c1[nH]c2ccccc2c(O)c1-c1cc2ccccc2oc1=O | 11.5
CCCCN(Cc1ccccc1)C1CCN(CCc2ccccc2)CC1 | -13.4
CCOc1cccc(NC(=O)C2CCCN(S(=O)(=O)c3ccc(OC)cc3)C2)c1 (centres unmarked) | 3.07
COc1ccccc1CCNC(=O)C(=O)NCC1OCCCN1S(=O)(=O)c1ccc(F)cc1C (centres unmarked) | 14.9
CC(=O)c1c(C(C)=O)c(C)n(-c2ccc(N)cc2)c1C | 5.42
CS(=O)(=O)Nc1ccc(C(=O)NCCSC2CCCCC2)cc1 | -8.88
O=C(/C=C/c1ccc2c(c1)OCO2)Nc1nc(-c2ccc(F)cc2)cs1 | 6.95
Cc1ccc(S(=O)(=O)CC2CSc3nc4ccccc4n32)cc1 (centres unmarked) | -0.204
CC(C)C(NC(=O)C1CCCCC1)C(=O)N1CCN(c2ccc(F)cc2)CC1 (centres unmarked) | -32.1
Clc1ccc(OCCCNCc2ccccc2)c(Br)c1.O=C(O)C(=O)O | -26.7
Cn1cnc([N+](=O)[O-])c1Oc1ccc2ccccc2c1 | 15.7
COc1ccccc1CN(C(=O)c1ccco1)C(C(=O)NC1CCCC1)c1ccncc1 (centres unmarked) | 12.4
Cc1ccc(C2(C)NC(=O)N(CC(=O)Nc3c(C)n(C)n(-c4ccccc4)c3=O)C2=O)cc1 (centres unmarked) | 14.4
CC(C)CC(=O)N1CCN(C(=O)CCC2CCCC2)CC1 | 5.45
Cc1csc(NC(=O)CN2C(=O)c3ccccc3S2(=O)=O)n1 | 6.66
Cc1cccc(OCC(=O)NC2CCCCCC2)c1C | 10.5
CN(C)C(=O)C1(c2ccccc2)CCN(S(=O)(=O)c2ccccc2)CC1 | 11.9

Compound | hERG current change (%, negative = inhibition) at 1uM [%]
Cc1c(Cl)cnc(NC(=O)COC(=O)c2cccs2)c1Cl | 9.84
O=C(O)/C=C/C(=O)NCCC1=CCCCC1 | 12.9
C=C(C(=O)Nc1ccccc1)c1ccc(C)cc1 | 2.84
CC(C)Cn1c(N)c(C(=O)COC(=O)c2ccccc2Cl)c(=O)n(C)c1=O | -0.862
Cc1ccc(C(C)C)c(Oc2nnnn2-c2ccccc2)c1 | 10.5
C[C@]12CC(=O)CC1CCC1C2CC[C@@]2(C)C1CC[C@@H]2O (some centres unmarked) | 9.3
Cc1nc2scc(-c3ccccc3)c2c(=O)o1 | -8.18
CN(CC(=O)Nc1ccc(Cl)cc1)S(=O)(=O)c1ccc2c(c1)n(C)c(=O)c(=O)n2C | 14
COc1ccc(S(=O)(=O)NCCC(=O)OCC(=O)c2ccc[nH]2)cc1[N+](=O)[O-] | -0.398
CCOC(=O)c1c(NC(=O)c2ccncc2)sc(C)c1C | 9.53
CCOP(=O)(OCC)C(Nc1ccccc1)c1ccco1 (centres unmarked) | 11.5
CC(=O)c1cccc(NC(=O)N2C3CCC2CC(O)(c2cccnc2)C3)c1 (centres unmarked) | 6.97
Cc1cccc(N2CCN(c3nnnn3-c3ccccc3)CC2C)c1 (centres unmarked) | 6
O=C(CSc1cc(Cl)ccc1Cl)NCC1CCCO1 (centres unmarked) | -16.6
CCOC(=O)c1nnn(-c2nonc2N)c1COc1cc(C)c(Cl)c(C)c1 | 10.2
CCc1nn(CC(=O)N2CCC(C)CC2)c(=O)c2cccn12 | 12.3
COC(=O)CC1(C(=O)OC)Oc2ccccc2C(=O)N1c1ccc(F)cc1F (centres unmarked) | 10.2
COCc1cc(CNC(=O)C2CCC(=O)N(Cc3ccccc3OC)C2)[nH]n1 (centres unmarked) | 11.8
CCOc1cc(NCCN2CCOCC2)c([N+](=O)[O-])cc1OCC | 3.83
O=C(N/N=C\c1ccc(CNS(=O)(=O)c2ccccc2)o1)C(=O)Nc1ccc(F)cc1 | -6.45
